# Data: the supplement of paper PMC3334620
# Over roughly 33,000 sequences, “E-score (-0.5 to 0.5)” has its median near -0.04; the highest 2% begin near 0.36. Some of the results follow.
# Molecular target: T1, Hmlalpha2 (UniProt P0CY09)
# T1 sequence: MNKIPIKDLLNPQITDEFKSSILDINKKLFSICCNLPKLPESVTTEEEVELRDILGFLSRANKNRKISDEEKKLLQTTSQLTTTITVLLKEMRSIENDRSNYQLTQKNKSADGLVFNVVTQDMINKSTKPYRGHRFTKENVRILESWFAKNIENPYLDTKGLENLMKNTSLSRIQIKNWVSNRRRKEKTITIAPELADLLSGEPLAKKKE
# Assay: PBM E-score (8-mer binding enrichment) (E-score (-0.5 to 0.5)); higher = stronger / more preferred TF binding; most listed sequences are background and not binding sites
# Details: protein concentration: 200 nM; construct: GST-full length
# Method in brief: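 Using PURExpress in vitro transcription/translation, GST-tagged yeast transcription factors were made in full-length or DNA-binding-domain form. These were applied at about 100-200 nM to double-stranded universal all-10-mer Agilent arrays, and bound protein was detected with fluorescent anti-GST. Scans were normalised with masliner before the Universal PBM Analysis Suite assigned E-scores to ungapped eight-base words pooled with their reverse complements.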
row,Sequence,PBM E-score
1,GCTTATAC,0.0744
2,TCTGGAAA,-0.0188
3,AGAGAGTA,0.089
4,CCCAGGTA,-0.101
5,CAATGGGC,-0.0746
6,CCCCTCGA,-0.205
7,CGCGATAG,0.0929
8,GAGAACTC,-0.234
9,AAACGCAC,0.161
10,ATCGTACG,-0.00776
11,AACAGCCC,0.0123
12,AGTGCCTC,-0.112
13,AATAGCCA,0.012
14,AATTAATC,0.148
15,GTTGCAAA,0.229
16,CTCCGCGC,-0.2
17,CTGCATGC,0.135
18,AGGGTCTC,-0.106
19,CCGACTAA,-0.149
20,TCTCGTCA,-0.0582
21,ATCTATGC,0.0381
22,GATCTCAC,-0.0588
23,GACACTAA,-0.0834
24,AAGATCAA,0.0571
25,CAACGGCC,-0.165

row,Sequence,PBM E-score
1,ACTCACTG,0.0859
2,AAGTGTAA,0.156
3,AACAACAA,0.306
4,AAACGCGC,0.16
5,CGTGTGCA,0.0955
6,CAAGTGGG,-0.06
7,CACCCGTC,-0.165
8,ACAGGTAG,0.00661
9,AGCAAGGA,-0.171
10,AGCCATTG,0.0239
11,AAAGTCAT,0.0672
12,GAGCGGAA,-0.0844
13,AATGTGAC,-0.14
14,AGATCCAC,-0.137
15,AGGACTAA,-0.165
16,CACGAGGG,-0.0513
17,AGAATAGC,-0.15
18,TGGAGCAA,-0.0513
19,AGTCGTAC,-0.161
20,ATCCTCGG,-0.306
21,GCGTTGAC,0.196
22,ACGAGGGG,-0.0932
23,CCCAATAA,-0.0986
24,ATCAGACG,-0.0575
25,ACTGCGGG,-0.135

row,Sequence,PBM E-score
1,GCAGGTTA,-0.218
2,AAATGACT,0.0928
3,TACTGCTA,-0.135
4,AAACACAT,0.314
5,ATCTGCTC,-0.0241
6,AGGGCCCT,-0.249
7,CCTCAAAC,-0.0319
8,CCACCCCG,-0.115
9,ATTCTAAG,0.0189
10,AATGTCTC,-0.00015
11,AACAATGA,0.232
12,CCCTCCCC,-0.29
13,ACTCTTCT,0.0161
14,GAAGAGGA,-0.279
15,CTAGCTCC,-0.0376
16,AGGTCCGA,-0.138
17,CCCGCGCC,-0.242
18,AGTAGCCG,-0.148
19,ACTTCCAG,-0.217
20,AATTAGCG,-0.0517
21,AGAACGTA,0.193
22,TCATTGCA,0.0979
23,AGAGTAAT,0.195
24,TCTCAACA,0.295
25,GAACTCGC,-0.00079

row,Sequence,PBM E-score
1,AGGGACAG,-0.336
2,CGCCCAAC,-0.136
3,CAATGCGA,0.0708
4,ACCGCTGG,-0.228
5,CTGCGGTA,-0.0205
6,ACCATTTA,0.106
7,CCAATGCG,-0.181
8,GTTGAAGA,0.135
9,TTACCTAA,0.223
10,GAATATTA,0.127
11,GGGCGTAC,-0.0757
12,AAACCGCC,-0.0107
13,GCTCATCC,-0.167
14,CCCAGCTA,-0.156
15,CGCACGTA,0.224
16,ACGCCCCC,-0.141
17,GACCAAGA,-0.256
18,CAGACGTA,0.14
19,CAGGGATA,-0.00861
20,TTCACAAA,0.136
21,GAGATTGA,-0.0419
22,ACCTGGAA,0.21
23,ATGCCGCA,-0.0752
24,CATTCCCA,-0.0328
25,AGACGACA,-0.0381

row,Sequence,PBM E-score
1,ACCATAAG,-0.141
2,ATATCTGA,0.103
3,AGTGCGGG,-0.18
4,CATGCTCC,0.0297
5,CTTTTGAC,0.204
6,AGAACAGA,-0.0893
7,AGTACTAG,0.065
8,TGGAAAAA,-0.0202
9,CGACCAAG,-0.16
10,TATCCGCA,0.194
11,GAGAATCA,-0.217
12,CATGGGGA,-0.0327
13,ATTCCAGA,-0.0334
14,GATGTCAA,0.194
15,CGTTTGTA,0.275
16,GCCGTTTA,-0.0377
17,CCTACGGA,-0.288
18,GAAGTGGC,-0.132
19,CCGACATC,-0.04
20,AGGCGCTG,-0.0892
21,ATGTTCAC,0.298
22,CTCTTCAG,-0.265
23,ACAAGGAC,0.105
24,CGTTATTA,0.222
25,CTCGTCTC,-0.115

row,Sequence,PBM E-score
1,AGACCTCC,-0.232
2,ACGTACGC,0.292
3,GTAAGTTA,0.213
4,ATCTGGTA,0.162
5,CAAGCATC,-0.173
6,ATGCATGG,0.207
7,TATATATA,0.361
8,AGGGAATA,0.0329
9,CAGGTGCA,-0.0907
10,GTGAGCAC,-0.00337
11,CAACATAA,0.359
12,CAAATCGG,-0.208
13,CACGATCG,0.137
14,AATGGGAC,-0.288
15,CGGGACCC,-0.354
16,ATTATGAC,0.107
17,CTTGAGGA,-0.227
18,CACGCTCG,0.0339
19,CTTTGTTA,0.324
20,AGCGCCCC,-0.363
21,ACCCGTCA,-0.224
22,AGTGCAAA,0.178
23,AAATACAC,0.431
24,CAACTGCA,0.0885
25,CGATATAG,0.051

row,Sequence,PBM E-score
1,ACGTCACA,0.143
2,CAGCTAGG,-0.177
3,CACGTCTG,0.084
4,CGGTGAAC,-0.0685
5,GGGCGACC,-0.382
6,GCGGAACA,-0.184
7,ACATATGA,0.26
8,GTCGTCCA,-0.121
9,CGGACTCC,-0.0792
10,AGGGTTAG,-0.0069
11,AAGACCGG,-0.294
12,CCTCAGGC,-0.32
13,ACCCTTAC,0.0252
14,CGATAAAA,0.0667
15,CTTTCAAC,0.149
16,AACCTTGC,-0.156
17,AGGTACGA,-0.162
18,GATGAATA,0.185
19,GAAGCAGA,-0.156
20,AAACAGCT,-0.0533
21,GAAGCCAC,-0.114
22,CACACTTC,0.143
